# Assay results reported in PubChem BioAssay AID588591 (National Center for Advancing Translational Sciences (NCATS), 2011).
# Screen size: about 390,000 compounds; about 4,700 (1.2%) were called active. Inconclusive results, whose numbers are uncertain, are shown with a selection of clear calls. Calls follow the shape of the dose curve; as a rule, active = well fitted inhibition curve with a large enough effect; inconclusive = small, poorly fitted or top-dose-only effect, or another doubt; inactive = no such curve, though single readings can be large or run the other way. A potency beside an inconclusive call is a rough fit, not a confirmed value.
# Target: DNA polymerase eta (Homo sapiens) (UniProt Q9Y253)
# Experiment: qHTS for Inhibitors of Polymerase Eta
# Conditions: recombinant Pol eta, fluorescent DNA replication assay; series mostly up to 114 µM
# Method in brief: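 Pol eta at 10 nM preincubated with compounds 15 min at room temperature; reaction started with fluorescent substrate (50 nM final) and read kinetically at 0 and 10 min.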
# Potency is read from the fitted curve at half-maximal effect; tags tell the direction and shape of the fitted curve.
# Sequence of UniProt Q9Y253 (Q9Y253 whole entry, looked up): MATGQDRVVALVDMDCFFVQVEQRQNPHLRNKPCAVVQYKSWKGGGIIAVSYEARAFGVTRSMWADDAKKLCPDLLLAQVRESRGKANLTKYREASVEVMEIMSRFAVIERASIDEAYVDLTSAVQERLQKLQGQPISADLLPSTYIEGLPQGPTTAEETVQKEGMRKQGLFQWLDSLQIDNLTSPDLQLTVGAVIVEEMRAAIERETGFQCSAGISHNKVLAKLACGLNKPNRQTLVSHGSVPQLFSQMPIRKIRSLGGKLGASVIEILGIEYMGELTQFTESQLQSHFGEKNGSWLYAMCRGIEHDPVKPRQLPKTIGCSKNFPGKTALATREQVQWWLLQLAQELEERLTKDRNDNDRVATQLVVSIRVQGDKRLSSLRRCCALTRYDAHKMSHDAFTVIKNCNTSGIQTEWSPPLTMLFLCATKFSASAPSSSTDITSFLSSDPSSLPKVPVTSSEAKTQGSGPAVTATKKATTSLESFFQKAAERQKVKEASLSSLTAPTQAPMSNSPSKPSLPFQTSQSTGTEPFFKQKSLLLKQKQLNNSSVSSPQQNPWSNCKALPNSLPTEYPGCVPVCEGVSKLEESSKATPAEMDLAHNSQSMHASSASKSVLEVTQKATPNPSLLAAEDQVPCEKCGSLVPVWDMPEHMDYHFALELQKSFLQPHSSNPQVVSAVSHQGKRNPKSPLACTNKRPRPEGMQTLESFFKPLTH
row,SMILES,Potency
1,O=C(N/N=C/c1ccc(OC(=O)c2cccs2)cc1)c1cccc(F)c1,inactive
2,CC(C)(C)C(=O)NC(=S)Nc1cc(C(F)(F)F)ccc1N1CCOCC1,"inconclusive: 79.4 µM [inhibitor, partial curve, poor fit]"
3,Cc1c(NC(=O)COC(=O)c2ccc(Br)o2)c(=O)n(-c2ccccc2)n1C,"inconclusive: 44.7 µM [inhibitor, partial curve, poor fit]"
4,Cc1ccc(-n2c(=O)c3c(c4cc(C)ccc4n3C)n(CC(=O)NCc3ccccc3)c2=O)cc1,inactive
5,CC1=C(C#N)C(=O)NC(=O)/C1=C\c1ccc(-c2ccc(C)cc2[N+](=O)[O-])o1,active: 50.1 µM
6,Cc1ccc2nc(-c3ccc(SCC(=O)O)nc3)[nH]c2c1,"inconclusive: 31.6 µM [inhibitor, single point]"
7,CCCCn1c(NCc2ccc(N(C)C)cc2)nc2ccccc21,"inconclusive: 89.1 µM [inhibitor, partial curve, poor fit]"
8,Cc1ccccc1CSc1cn(CC(=O)N2CCCCCC2)c2ccccc12,inactive
9,CC(C)S(=O)(=O)c1csc(NC(=O)Nc2cc(Cl)ccc2Cl)c1Cl,"inconclusive: 22.4 µM [inhibitor, partial curve, poor fit]"
10,CC(/C=C1\SC(=S)N(NS(=O)(=O)c2ccccc2)C1=O)=C\c1ccccc1,active: 79.4 µM
11,O=C(CN1CCN(S(=O)(=O)c2cc(Cl)ccc2Cl)CC1)c1ccc(O)c(O)c1,"inconclusive: 20 µM [inhibitor, full curve, poor fit]"
12,COc1ccc(CNC(=O)Cn2c(=O)cc(-c3ccccc3)c3c(C)nn(C)c32)cc1,inactive
13,COc1ccc(NC(=O)CCS(=O)(=O)c2ccc(Br)s2)cc1,active: 50.1 µM
14,CCCc1cc(=O)oc2cc(OCC(=O)Nc3ccc(S(N)(=O)=O)cc3)ccc12,active: 10 µM
15,CCN(c1cccc(C)c1)S(=O)(=O)c1ccc(-c2coc(C)n2)cc1,"inconclusive: 56.2 µM [inhibitor, partial curve, poor fit]"
16,O=C(/C=C/c1ccc2c(c1)OCO2)c1ccco1,"inconclusive: 22.4 µM [inhibitor, single point]"
17,Cc1cc(C)c2c(=O)[nH]c(SCC(=O)c3ccc(C)c(C)c3)nc2n1,inactive
18,O=C(NCCN=C1NS(=O)(=O)c2ccccc21)c1ccc2nccnc2c1,"inconclusive: 22.4 µM [inhibitor, single point]"
19,CCc1ccc(S(=O)(=O)/N=C2\C=C(Nc3ccc(C(=O)O)cc3)C(=O)c3ccccc32)cc1,active: 28.2 µM
20,Oc1ccc2ccccc2c1C=NC12CN3CCN(CN(C3)C1)C2,active: 20 µM
21,Cc1ccc(C)c(Cn2nnc3c(=O)[nH]c(C(=O)NCc4ccco4)nc32)c1,active: 31.6 µM
22,CCCC1=NN2C(=N)/C(=C\c3cc(C)n(-c4cc(C)cc(C)c4)c3C)C(=O)N=C2S1,"inconclusive: 56.2 µM [inhibitor, partial curve, poor fit]"
23,Cc1sc(-n2c(C)cc(/C=C3\SC(=S)NC3=O)c2C)c(C#N)c1C,active: 22.4 µM

row,SMILES,Potency
1,O=C(CCc1nc2sc3c(c2c(=O)[nH]1)CCCC3)N1CCN(c2ccccc2)CC1,active: 79.4 µM
2,COc1ccc(NC(=O)Nc2ccc3c(c2)C(=O)N([C@H](C)CO)C[C@@H](C)[C@@H](CN(C)C(=O)C2CCCCC2)OCCCC[C@H](C)O3)cc1,"inconclusive: 89.1 µM [inhibitor, partial curve, poor fit]"
3,CC1CCC/C(=N\NC(=O)Nc2ccccc2)C1 (configuration not stated),inactive
4,COC1=C(Nc2ccc(O)cc2)C(=O)c2ccccc2C1=O,inactive
5,CCc1ccc(N=C2NC(=O)/C(=C/c3ccc(OCC(=O)O)cc3)S2)cc1,active: 44.7 µM
6,O=C(c1ccco1)N1CCN(Cc2cc(=O)oc3cc(O)ccc23)CC1,"inconclusive: 22.4 µM [inhibitor, full curve]"
7,C/C(=N\OC(=O)c1cccc(Cl)c1)c1sc(C)nc1C,"inconclusive: 28.2 µM [inhibitor, single point]"
8,COc1ccc(Cn2ccnc2SCC(=O)NCc2ccco2)cc1,inactive
9,C=C(C)Cn1c(SCC(=O)N/N=C/c2c(O)ccc3ccccc23)nc2ccccc2c1=O,inactive
10,C#CCOCCOCCOCCNc1nc(N2CCN(C(=O)CCCCCCCCCCNC(=O)Cn3cc(CCCCCN)nn3)CC2)nc(N2CCN(C(=O)CCCCCCCCCCNC(=O)Cn3cc(C[C@@H](C)O)nn3)CC2)n1,"inconclusive: 39.8 µM [inhibitor, partial curve]"
11,Cc1ccc(OC(=O)CN2C(=O)c3ccccc3C2=O)cc1C,"inconclusive: 79.4 µM [inhibitor, partial curve, poor fit]"
12,Cc1onc(-c2ccccc2)c1C(=O)OCC(=O)c1ccccc1,"inconclusive: 20 µM [inhibitor, partial curve, poor fit]"
13,COc1cccc(NC(=O)CN(C)C(=O)c2cc3c(s2)CCC3)c1,active: 3.55 µM
14,Cc1cccc(C)c1NC(=O)Cn1nnc(C(=O)Nc2ccc(F)cc2F)c1N,"inconclusive: 31.6 µM [inhibitor, single point]"
15,COc1ccc(Nc2ncnc3c2cnn3-c2ccc(C)cc2)cc1Cl,inactive
16,CC1CCN(S(=O)(=O)c2ccc(C(=O)Nc3ncccc3O)cc2)CC1,"inconclusive: 11.2 µM [inhibitor, partial curve, poor fit]"
17,COc1ccc(OCC(=O)NNc2c3ccccc3nc3ccccc23)cc1,"inconclusive: 28.2 µM [inhibitor, partial curve, poor fit]"
18,COC(=O)c1ccccc1NC(=O)CCS(=O)(=O)c1ccc(Br)s1,inactive
19,Cc1ccc(OCc2ccc(-c3nc(C#N)c(NCc4ccccc4Cl)o3)o2)cc1,inactive
20,O=C(COC(=O)/C=C/c1ccccc1)Nc1nnc(-c2ccccc2)o1,"inconclusive: 44.7 µM [inhibitor, partial curve, poor fit]"
21,O=C(Nc1ncc([N+](=O)[O-])s1)c1ccc2c(c1)OCO2,"inconclusive: 39.8 µM [inhibitor, partial curve]"
22,O=C(CCC(=O)c1cccs1)Nc1ncccc1O,"inconclusive: 15.8 µM [inhibitor, full curve, poor fit]"
23,O=C(COC(=O)CCc1nc2ccccc2s1)Nc1ncc(Cl)cc1Cl,"inconclusive: 17.8 µM [inhibitor, full curve, poor fit]"

row,SMILES,Potency
1,NS(=O)(=O)c1cccc(Nc2nc3ccccc3nc2NS(=O)(=O)c2ccc(Cl)cc2)c1,"inconclusive: 79.4 µM [inhibitor, partial curve]"
2,Cc1cccc(N=C2NC(=O)/C(=C\c3cccs3)S2)c1,"inconclusive: 35.5 µM [inhibitor, partial curve, poor fit]"
3,COc1ccc(NC(=S)NCCCCCC(=O)C[N+](=O)[O-])cc1,active: 79.4 µM
4,CC(C)CC(COCc1cccc(C(F)(F)F)c1)N1CCN(C(=O)c2cccc(C(F)(F)F)c2)CCC1=O (configuration not stated),"inconclusive: 50.1 µM [inhibitor, full curve, poor fit]"
5,C=C(C)COc1ccc(C2NC(=O)c3ccccc3O2)cc1OCC (configuration not stated),inactive
6,O=C(Nc1ccc(-n2nncc2-c2ccco2)cc1)c1cc2ccccc2oc1=O,active: 89.1 µM
7,CCn1c(/C=C/Nc2ccccc2)[n+](CC)c2cc(Cl)c(Cl)cc21,"inconclusive: 79.4 µM [inhibitor, partial curve, poor fit]"
8,CN1CCN(C(=O)Nc2ccc3c(c2)N(C)C(=O)c2ccccc2S3)CC1,"inconclusive: 39.8 µM [inhibitor, partial curve, poor fit]"
9,Cc1ccnc(NC(=O)CCC(=O)N(CC(=O)NC2CCCCC2)Cc2cccs2)c1,inactive
10,COc1ccc(NC(=O)CSc2nnnn2C2CC2)cc1S(=O)(=O)N1CCOCC1,"inconclusive: 89.1 µM [inhibitor, partial curve, poor fit]"
11,Cc1ccc(Cl)cc1NC(=O)Cn1c(=O)n(CCC(=O)NCc2ccc3c(c2)OCO3)c(=O)c2sccc21,inactive
12,Cc1ccc2[nH]c(=O)cc(C(=O)OCC(=O)c3ccccc3)c2c1,"inconclusive: 25.1 µM [inhibitor, single point]"
13,O=C(C1CCCN(S(=O)(=O)c2ccc(Br)s2)C1)N1CCN(c2ccccc2F)CC1 (configuration not stated),inactive
14,CC/C(=C(/c1ccccc1)c1ccc(OCC[N+](C)(C)C)cc1)c1ccccc1,"inconclusive: 79.4 µM [inhibitor, partial curve, poor fit]"
15,CC12CCCC[C@@H]1CCC1C2CCC2(C)C1CC[C@@]2(O)CNCCO (some centres not stated),inactive
16,Cc1sc2nc(SCC(=O)Nc3ccc(S(N)(=O)=O)cc3)[nH]c(=O)c2c1C,"inconclusive: 22.4 µM [inhibitor, full curve, poor fit]"
17,Cc1cc(C)n2nc(C(=O)OCC(=O)c3ccccc3Cl)nc2n1,"inconclusive: 15.8 µM [inhibitor, partial curve, poor fit]"
18,O=C(N/N=C/c1ccncc1)c1cccc(S(=O)(=O)Nc2ccc(Cl)cc2)c1,active: 50.1 µM
19,Cc1cc(C)nc(-n2nc(C)c3c2NC(=O)CC3c2cccc(O)c2)n1 (configuration not stated),inactive
20,CSc1nncc(-c2ccc(F)cc2)n1,"inconclusive: 7.08 µM [inhibitor, partial curve, poor fit]"
21,CCOc1cc([N+](=O)[O-])c2nc(N)sc2c1,"inconclusive: 89.1 µM [inhibitor, partial curve, poor fit]"
